Assay results: ChEMBL document CHEMBL5308541, “MAIP: An Open-Source Tool to Enrich High-Throughput Screening Output and Identify Novel, Druglike Molecules with Antimalarial Activity” (ACS Med Chem Lett, 2023)
The campaign covered roughly 150,000 compounds. About 540 (0.36%) showed an effect of 50% or more. This is one part of the list.

What follows are compounds tested on Plasmodium falciparum (assay: Primary screen in NF54 nanoGlo assay, in single point, at 2uM, 72h; a lower Z score goes with more inhibition). Conditions: timepoint 72 hour.
Format: functional, Erythrocyte

Structure (SMILES)	% Inhibition	Z score
CCNS(=O)(=O)c1ccc(CC(=O)N[C@H]2CCCOc3cc(F)ccc32)cc1	0%	-0.01
Cn1cc([C@H]2OCCC[C@@H]2NC2CCN(CCN3CCOCC3)CC2)cn1	-4%	0.77
O=C(Nc1ccc(-c2cccc(F)c2)cc1)[C@@H]1CCCN1CCCn1ccnc1	16%	-2.37
O=C1C[C@H](N2CCC(Nc3ccc4c(c3)OCO4)CC2)C(=O)N1c1ccccc1F	-4%	0.77
CCC1CN(CC(O)CN2CCC(C)CC2)CCN1CC(C)O (configuration not stated)	-7%	1.31
C[C@H]1CN(C(=O)c2ccc3c(c2)CCC(=O)N3)Cc2cncnc21	-6%	1
CC(=O)N(C)CC(=O)N1CCN(c2cc(C)nc(Nc3ccc(C)cc3)n2)CC1	-2%	0.34
Cc1ccc(CNCc2ccccc2CN2CC[C@H](O)C2)c(-c2cnn(C)c2)c1	1%	-0.25
CN1CCC(CNC(=O)c2cc(-c3ccco3)[nH]n2)(N2CCCCC2)CC1	-2%	0.39
CC(C)N1CCC(N2CCC3(CCC(=O)N(CCc4c[nH]cn4)C3)CC2)CC1	-5%	0.99
CCCN1C(=O)N[C@@H](CC(=O)NCc2ccc3ccccc3n2)C1=O	-1%	0.1
O=C(NCc1cccc(CN2CCOCC2)c1)c1cc2ccc(Br)cc2[nH]1	-2%	0.37
Cc1nccn1-c1ccc(C(C)NC2CCN3CCCC3C2)cc1F (configuration not stated)	0%	0
O=C(NCC1CCN(C(=O)C[C@H]2CCc3ccccc32)CC1)c1cncc(F)c1	-12%	2.12
CCN(CC)S(=O)(=O)c1ccc2c(c1)CCN2C(=O)[C@H](C)N1C(=O)c2ccc(C)cc2C1=O	-12%	1.77
Clc1ccc(NC[C@H]2CCCNC2)cc1	-12%	1.99
CCN(C)C[C@@H](C)CNc1nc(N)nc(C)c1C	-3%	0.67
Cc1cccc(N2CCC(NCc3c[nH]c4nccnc34)CC2)n1	-2%	0.33
CCCNC(=O)N1CCn2nc(-c3nc4cc(Cl)ccc4[nH]3)cc2C1	1%	-0.12
CC[C@H](NC(=O)NCCOC)c1cccc(S(N)(=O)=O)c1	-3%	0.63
CC(C)(C)OC(=O)N1CC(NC(=O)c2cc3c(F)cc(Br)cc3[nH]2)C1	-1%	0.25
CC(C)c1ccc(-c2noc(CCN3CCN(CCCN(C)C)CC3)n2)cc1	34%	-6.73
CN1CCN(c2cnn([C@H]3CCCN(Cc4cccc5nccn45)C3)c(=O)c2)CC1	-3%	0.57
O=C(NC[C@H]1CN(CC2CCN(CC3CC3)CC2)C(=O)CO1)c1cc2ccccc2[nH]1	-8%	1.25
CN1CC[C@H](CNCc2ccccc2)c2ccccc21	-15%	3.12
O=C(NC1CCCC(C2CC2)C1)N1CCC(c2ccco2)C1 (configuration not stated)	-8%	1.32
